In article PMC12136788:
Some of the results follow.

T1: UNK ZnF1-6 (called full-length) (human, UniProt Q9C0B0 30-357)
T1 sequence: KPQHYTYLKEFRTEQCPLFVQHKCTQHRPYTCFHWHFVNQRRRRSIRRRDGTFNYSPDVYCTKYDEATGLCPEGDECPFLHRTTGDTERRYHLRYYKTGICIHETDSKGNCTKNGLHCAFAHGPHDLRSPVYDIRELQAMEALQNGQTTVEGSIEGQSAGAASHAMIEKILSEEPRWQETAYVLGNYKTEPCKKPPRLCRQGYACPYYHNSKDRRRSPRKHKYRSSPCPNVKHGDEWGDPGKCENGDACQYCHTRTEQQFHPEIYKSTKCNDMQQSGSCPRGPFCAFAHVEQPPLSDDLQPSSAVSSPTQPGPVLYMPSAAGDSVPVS

B1: chr5:80438700:80438808:+|CDS|ENSG00000039319|unk|total|mutant (ssRNA)
RNA: GGGAGUUCUACAGUCCGACGAUCAGAUACAACCGAAAGUGAACCCAGCACAGCAGAUACCGUUGUUCCAAUCACUUGUGCUACCGAUUCUACAGCUGAUCCACAGGUCCGCUUCAACUCUAAUUACAUUGAUACCGAAAGUAACAACAGAGGAUUGAGCAUCA
B2: chrX:8528873:8532994:-|three_prime_utr|ENSG00000011201|control|control|control (ssRNA)
RNA: GGGAGUUCUACAGUCCGACGAUCAUGCACACUUCCAGAGGCAGUGGGAACUGCUCAGAGGCCCGGACUCUCCUAUGUGACUUUAGUGCAGGAAGAACUUCUGUCAAUCAUGGACGCAUCUGGAGACAAGUGAGAAACAGUAGACAACAGAGGAUUGAGCAUCA
B3: ENSG00000070961:be:win_651|CDS|ENSG00000070961|bound_else_gene|NA|bound_elsewhere_windowed (ssRNA)
RNA: GGGAGUUCUACAGUCCGACGAUCAGUGAAAUAUGGUGAUCUUCUUCCAGCUGACGGCAUACUUAUUCAAGGCAACGAUCUUAAAAUUGAUGAAAGCUCAUUGACUGGUGAAUCAGAUCAUGUUAAAAAGUCUUUAGAUAAGGACAACAGAGGAUUGAGCAUCA
B4: chr1:192811693:192811799:+|3pUTR|ENSG00000116741|unk|total|mutant (ssRNA)
RNA: GGGAGUUCUACAGUCCGACGAUCCUUGAAUUCAGCCUGGGUGUUCAGGAAACAUCACUCAGAACUAUUGAUUCAAAGUUGGGCCGUGAAUCAGGAAGCCAGUAACUGACCCGGAGAAGCUGGUAUCAGAACAGCUUCCCUCACCAACAGAGGAUUGAGCAUCA
B5: chr1:206732925:206733026:+|3pUTR|ENSG00000162889|msi1|FALSE|unique (ssRNA)
RNA: GGGAGUUCUACAGUCCGACGAUCAAGUGAGCAAGGUGCUCUUGAACCUGUGCUCAUUUUGCAAUUUUAUCAGUAAUUUGACUUAGAGUUUUUACGAAACCUCUUUUGUUGUCCUUGCCCCACUCCUCUCCACCAGACGCCUUCCAACAGAGGAUUGAGCAUCA
B6: chr12:10081268:10081413:-|three_prime_utr|ENSG00000150048|control|control|control (ssRNA)
RNA: GGGAGUUCUACAGUCCGACGAUCUCAGUACUACCAGCUCUCCAAUACUGGUCAAGACACCAUUUCUCAAAUGGAAGAAAGAUUAGGAAAUACGUCCCAAGAGUUGCAAUCUCUUCAAGUCCAGAAUAUAAAGCUUGCAGGAAGCAACAGAGGAUUGAGCAUCA
B7: chr15:39595431:39595532:+|3pUTR|ENSG00000137801|msi1_unk|total|mutant (ssRNA)
RNA: GGGAGUUCUACAGUCCGACGAUCCCCCAGGAUCACUUCUCCUUGGCUUCCUUCUUUUCUGUGCUUGCAUCAGUGUGGACUCCCCGAACGUGCGACCUGCCUCAAGAAAAUGCAGUUUUCAAAAACAGACUCAGCAUUCAGCCUCAACAGAGGAUUGAGCAUCA
B8: chr1:42696720:42696786:+|CDS|ENSG00000065978|msi1_unk|total|mutant (ssRNA)
RNA: GGGAGUUCUACAGUCCGACGAUCCCAGUUCAAGGCAGUAAAUAUGCAGCAGACCGUAACCAUUACCGACGCUAUCCACGUCGCCGGGGUCCUCCACGCAAUUACCAGCAAAAUUACCAGAACCGUGAGAGUGGGGAAAAGAACCAACAGAGGAUUGAGCAUCA
B9: chr4:138169334:138169435:-|3pUTR|ENSG00000151012|msi1|FALSE|unique (ssRNA)
RNA: GGGAGUUCUACAGUCCGACGAUCCCAUUUCACGCAGAAAAAAAGUCAGCCAGUAAUUAAGAAAAAAAGUGAUGGAGAUUAAGUAGUAUUUUGGCUUAUUUUUAGGACUCAUCAUGAGAAGACACAGUUCCUUUAAUCAGGAAACAACAGAGGAUUGAGCAUCA
B10: chrX:150470157:150470258:+|CDS|ENSG00000013619|unk|FALSE|unique (ssRNA)
RNA: GGGAGUUCUACAGUCCGACGAUCUCCAAAUGAGCUAGAUCUUGAGAAGAUACUGGGGACGAAGCCAGAAGAGCCACUGGUUUUAGAUCAUCCCCAGGCAACCCUAAGCACAACUCCCAAGCCUUCGGUUCAGAUGUCACACUUCAACAGAGGAUUGAGCAUCA
B11: chr5:96760809:96763199:-|three_prime_utr|ENSG00000164307|control|control|control (ssRNA)
RNA: GGGAGUUCUACAGUCCGACGAUCAGAAUCUCAGACUACAGCACUAAAUAUGCUUUGAUGCUACAUCAAACGGAAUGGAAGCAUAGCUGACUUCGCUAAAGUUACUUCAUCUCCAUCUAGCAAAUGAGGCACUGUUCUCAACCACAACAGAGGAUUGAGCAUCA
B12: chr1:64832709:64832810:+|3pUTR|ENSG00000162437|msi1|FALSE|bound_elsewhere (ssRNA)
RNA: GGGAGUUCUACAGUCCGACGAUCACAGCUAGAAAGUUUAAGGUAAUUUCUAAGUAUACUACCUAUAAGUAACUGAUAAGAAUUAGGCAUCAUUCAGUGAUAUAGCAGAUGACUAAUGGGUUUUUCAGGCCCUGCACUUCUCUUCAACAGAGGAUUGAGCAUCA
B13: chr4:174259701:174259819:-|CDS|ENSG00000164117|unk|FALSE|unique (ssRNA)
RNA: GGGAGUUCUACAGUCCGACGAUCAAAUCCACUUGGGGUCACUGUUCCAUAUACAAUAAGAACCCACCUUUAGGAUUUUCUUUUAGAAAAUUGUAUAUGCAGCUGGAUGAAGGCAGCCUCACCUUUAAUGCCAACCCAGAUGAGCAACAGAGGAUUGAGCAUCA
B14: chr3:11557161:11557262:-|3pUTR|ENSG00000144560|msi1|total|mutant (ssRNA)
RNA: GGGAGUUCUACAGUCCGACGAUCCCUCUGACUUUAUACUGUUAUUACUGCAUUUAUUAUUUGCUAUAUUAACCGCUACUAACCCGAAAUCCGAUGAAGCAAGCAUGACAGACACAGCUGUGGAGGUCACAGCUGCUCCUUUUUCAACAGAGGAUUGAGCAUCA
B15: chr1:113590523:113590624:+|CDS|ENSG00000081026|unk|FALSE|unique (ssRNA)
RNA: GGGAGUUCUACAGUCCGACGAUCUCAUCUGACUGGAUGAAGACUGUUCCAAGUUACAACCAAACAAAUAGCUCCAUGGACUUUAGAAAUUAUAUGAUGAGAGAUGAGACUCUGGAACCACUGCCCAAAAACUGGGAAAUGGCCCAACAGAGGAUUGAGCAUCA
B16: chr11:27368498:27368690:-|CDS|ENSG00000205213|msi1|FALSE|unique (ssRNA)
RNA: GGGAGUUCUACAGUCCGACGAUCACCCCUUUGUUUGCCAUUUCCUACAGGUGAAACGCCAUCAUUAGGAUUCACUGUAACGUUAGUGCUAUUAAACUCACUAGCAUUUUUAUUAAUGGCCGUUAUCUACACUAAACUAUACUGCAACAGAGGAUUGAGCAUCA
B17: chr1:17826356:17826472:+|CDS|ENSG00000117148|unk|FALSE|unique (ssRNA)
RNA: GGGAGUUCUACAGUCCGACGAUCAGGGAGCUGAUGGGGGAUCACGUCUCCUCCACCAAGGCCACAGUCUGGGAGGGUUCCAAUAGAAACUUUAGUGUCUGGCUAGGAGCGUCCGUGGUGGCUCACCUUUCUACCUACCAGUCUCAACAGAGGAUUGAGCAUCA
B18: chr2:96375651:96375752:+|3pUTR|ENSG00000121152|unk|total|mutant (ssRNA)
RNA: GGGAGUUCUACAGUCCGACGAUCAUUGACUAAGACAGUGGGUAUGCAAGAUAAGUUUAUUUUAUAUAAAAUACUUUGGGAAGCCGGUGUUCCCGGACUGGUGUGACAGUUCCAUGAAAUUAUGAGAGACCGGGGAUCCUUCCACAACAGAGGAUUGAGCAUCA
B19: chr12:48145849:48145950:+|3pUTR|ENSG00000152556|msi1|total|mutant (ssRNA)
RNA: GGGAGUUCUACAGUCCGACGAUCCAUGACCAGUUCUGGCCAGGAGCUGGAGGAGCAGGCAGUGGGUGGGAGCUCCUUUCCGGCCGAAUUUAACAUGACUUCUGCCCCAGCUUUAUCUGUCACACAAGGCUGGGCACCUCCCGUCAACAGAGGAUUGAGCAUCA
B20: chr4:106367042:106367435:-|CDS|ENSG00000250298|control|control|control (ssRNA)
RNA: GGGAGUUCUACAGUCCGACGAUCUUGUAGCCUGGGCCGCAGUUGUCACCUCCACAGCUUCAUGCGUCGAGGUGGGCUAGAGGUAGCCCUGCAGGUCCAGGUGUUGGACACUCCAGGUUAUCCACACAGCAGGCUGAGCAAGAACAACAGAGGAUUGAGCAUCA
B21: chr1:62654060:62654161:-|CDS|ENSG00000116641|unk|FALSE|unique (ssRNA)
RNA: GGGAGUUCUACAGUCCGACGAUCCUUGUUUUCUACCCAUCUCUUAUCCCAACUUUUUACAAAGGUGCCCCUUACCGAAGCAGUAGAUCCAGUGGAUUUGGAAGAUUACCUCAUUACUCAUCCUUUGGCUGUGGAUUCUGGGCCCAACAGAGGAUUGAGCAUCA
B22: chr17:63832812:63832858:-|3pUTR|ENSG00000108604|msi1_unk|total|mutant (ssRNA)
RNA: GGGAGUUCUACAGUCCGACGAUCCCAGCCCUGGAGCCUGGAGGGAGACCACCCUCUGGGUCCUUGCUGGGGCCGCAGACACGCCGGCUGGGGUGAGGAGUGUCUGCUGUCACCCUCUACUCUCCAGCUUCCGUCUUAUAAAUGCAACAGAGGAUUGAGCAUCA

These binders were tested against T1, UNK ZnF1-6 (called full-length) (assay: nsRBNS (natural sequence RNA bind-n-seq); RBNS binding buffer (assumed for nsRBNS): 25 mM Tris pH 7.5, 150 mM KCl, 3 mM MgCl2, 0.01% Triton X-100, 500 ug/ml BSA, 20 U/ml SUPERase-In, 4 C; UNK is unkempt and MSI1 is Musashi-1; names of the RNAs are library labels; protein concentration not given here; high values mean tight binding).
With B1 the binding signal was 0.438 enrichment R. Work on B2 yielded a binding signal of 0.679 enrichment R. For B3, the binding signal was 0.431 enrichment R. B4 showed a binding signal of 0.375 enrichment R. In the case of B5, the binding signal is reported as 0.465 enrichment R. Work on B6 yielded a binding signal of 0.413 enrichment R. Binder B7 has a binding signal of 0.644 enrichment R. Work on B8 yielded a binding signal of 0.624 enrichment R. B9 was tested, and the binding signal was 1.05 enrichment R. B10 gave a binding signal of 0.539 enrichment R. B11 gave a binding signal of 0.318 enrichment R. For B12, the binding signal was 1.22 enrichment R. For B13, the binding signal was 1.11 enrichment R. With B14 the binding signal was 0.51 enrichment R. Work on B15 yielded a binding signal of 1.15 enrichment R. B16 showed a binding signal of 0.97 enrichment R. For B17, the binding signal was 1.34 enrichment R. Binder B18 has a binding signal of 0.779 enrichment R. In the case of B19, the binding signal is reported as 0.655 enrichment R. B20 gave a binding signal of 0.697 enrichment R. Work on B21 yielded a binding signal of 0.693 enrichment R. Binder B22 has a binding signal of 0.444 enrichment R.
